In US5238838A (Degussa Aktiengesellschaft, priority 1991, dated 1993):
For some of these results: At least one read-out could not be matched to a standard name with certainty. For some of these results: For at least one compound, name, drawing or mass did not settle the structure.

How the values were obtained:
L-carnitine amidase [1] = test: Test for the induction of L-carnitine amidase; type: cell-based, strain DSM 6230; conditions: 5 g/l inductor; relative to L-carnitine amide = 100
Experimental: In this test, various substances were examined for their induction action. At the same time, the growth on these compounds was followed. The medium used was a minimum medium with 1.0 g/l instead of 0.5 g/l yeast extract, to which 5 g/l of the substance to be tested were added in each instance. The culture without inductor contained 5 g/l yeast extract. All tests were carried out with 20 ml shaking cultures which were incubated 36 h at 30° C. and 120 rpms in a rotating [round]shaking machine. These cultures were inoculated with 1% of an initial culture of strain DSM 6230. L-carnitine amide was used as substrate for the enzyme test.
At the same time, the growth of the bacteria was followed in these carnitine amide concentrations. The culture conditions corresponded to those in example 3.

L-carnitine amidase [2] = conditions: +/- not defined
[3] = tested on: L-carnitine amide hydrolase; conditions: +/- not defined; cited from earlier work

| Compound | mU/mg (%) (L-carnitine amidase [1]) | also measured |
| --- | --- | --- |
| NC(=O)[C@@H](N)Cc1ccccc1 [L-phenylalanine amide] | 4 |  |
| CC(O)C(N)=O (stereo not shown) [Lactic acid amide] | 2 |  |
| CCCC(N)=O [Butyramide] | 1 |  |
| C[N+](C)(C)C[C@H](O)CC(N)=O [L-carnitine amide] | 100 |  |
| C=C(C)C(N)=O [Methacrylamide] | 4 |  |
| C[N+](C)(C)CC(O)CC(=O)[O-] (racemic) [DL-carnitine] | 74 |  |
| C[N+](C)(C)CCCC(=O)[O-] [butyrobetaine, γ-butyrobetaine] | 33 |  |
| CC(N)=O [Acetamide] | 0 |  |
| C[N+](C)(C)C[C@H](O)CC#N [L-carnitine nitrile] | 4 |  |
| C[N+](C)(C)CC(O)CC(N)=O (racemic) [DL-carnitine amide] | 98 |  |
| NC(=O)c1cccnc1 [Nicotinamide] | 2 |  |
| C[N+](C)(C)C[C@@H](O)CC#N [D-carnitine nitrile] | 5 |  |
| CC(C)[C@H](N)C(N)=O [L-valine amide] | < 1 |  |
| C[N+](C)(C)CC(=O)[O-] [Glycine betaine] | 2 |  |
| CCC(N)=O [Propionamide] | 2 |  |
| NCC(N)=O [Glycine amide] | 3 |  |
| C=CC(N)=O [Acrylamide] | 8 |  |
| C[N+](C)(C)C[C@@H](O)CC(N)=O [D-carnitine amide] | 10 |  |
| NC(=O)c1ccccc1 [Benzamide] | 0 |  |
| C[N+](C)(C)CC(O)CC#N (racemic) [DL-carnitine nitrile] | 5 |  |
| C[N+](C)(C)CC(=O)CC(=O)[O-] [Dehydrocarnitine] | 16 |  |
| CC(C)C[C@@H](N)C(N)=O [D-leucine amide] | 5 |  |
| CC(C)C[C@H](N)C(N)=O [L-leucine amide] | < 1 |  |
| [Cl][Cu][Cl] [CuCl2] |  | Inhibitors: L-carnitine amidase (1 mM) (L-carnitine amidase [2]; 1 mM): +; Inhibitors: L-carnitine amidase (10 mM) (L-carnitine amidase [2]; 10 mM): +; Inhibitors: L-carnitine amide hydrolase (1 mM) [3]: - |
| CC(C)C(N)=O [Isobutyramide] | 2 |  |
| NC(=O)[C@@H]1CCCN1 [L-proline amide] | 3 |  |
